Measured values: PubChem BioAssay AID1963576 (National Center for Advancing Translational Sciences (NCATS), 2024)
Among all 46,000 compounds or so, about 60 (0.1%) were called active. Another 3% or so got no clear call; they are omitted. Calls follow the shape of the dose curve; as a rule, active = well fitted inhibition curve with a large enough effect; inconclusive = small, poorly fitted or top-dose-only effect; inactive = no such curve, though single readings can be large or run the other way. This is one part of the list.

Test: Primary qHTS assay for Inhibitors of ovarian cancer metastasis using an organotypic tumor microenvironment (TME) model. Also: nearly all actives have a fitted effect of over 65% in size.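 As to activity change, negative = inhibition: plate controls were DMSO wells for no effect and tomatine positive control wells for full effect.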
Conditions: SKOV3ip1-GFP adhesion/invasion on 3D omental model, fluorescence; series mostly up to 45.8 µM; activity change, negative = inhibition: at the top concentration
In short: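 A 3D layer of primary human omental fibroblasts, mesothelial cells, fibronectin and collagen I, grown 48 hr, received SKOV3ip1-GFP cells in serum-free medium plus compounds at 0.36-46 umol/L. After 2 hr RT and 16 hr 37 C, fixed adherent GFP cells were counted; normalized to DMSO and tomatine.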

| SMILES | outcome | activity change, negative = inhibition |
| --- | --- | --- |
| O=C(CCCn1c(=O)c2cccn2c2ccc(F)cc21)NCCc1ccccc1 | inactive |  |
| CCOC(=O)c1cccc(NC(=O)CCc2c(C)nc3cc(-c4ccc(Cl)cc4)nn3c2C)c1 | inactive |  |
| COc1ccc(-c2noc(-c3ccc(NCc4ccco4)c([N+](=O)[O-])c3)n2)cc1 | inactive |  |
| COc1ccc(NC(=O)Cn2cc(S(=O)(=O)c3ccc(C)cc3)c(=O)c3ccccc32)cc1OC | inactive |  |
| CCOc1ccccc1Nc1nc(-c2cccc(Cl)c2)c2c(n1)-c1ccccc1OC2 |  | inactive: -7.71% |
| Cc1ccc(CSCC(=O)NCc2ccc(F)cc2)cc1 |  | inactive: -4.77% |
| CCCn1c(=O)n(-c2cc(Cl)c(OC)cc2OC)c(=O)c2c3c(sc21)CN(C(C)=O)CC3 |  | inactive: -9.12% |
| Cc1cc(C)c(Cn2c(CCNC(=O)c3ccco3)nc3ccccc32)c(C)c1 |  | inactive: -19.1% |
| CC1=C(C(=O)Nc2cccnc2)C(c2cccc(O)c2)n2nc(SCc3ccccc3)nc2N1 (configuration not stated) |  | inactive: 9.14% |
| Cc1ccc(Nc2nnc(-c3ccc(C)c(S(=O)(=O)N4CCN(C)CC4)c3)c3ccccc23)c(C)c1 |  | inactive: 0.0317% |
| CCn1cc(CCC(=O)NCc2ccc(F)cc2)c2ccccc21 |  | inactive: 20.3% |
| Cc1ccc([C@H]2Nc3ccc(S(=O)(=O)Nc4cccc(Cl)c4C)cc3[C@H]3C=CC[C@H]32)cc1 |  | inactive: -6.75% |
| CCOc1ccc(C(=O)NCCc2csc(-c3ccc(C(F)(F)F)cc3)n2)cc1OCC |  | inactive: -27.4% |
| COc1ccc(C(=O)N2CCC(c3nc4ccccc4o3)CC2)cc1 | inactive |  |
| CCOc1ccccc1CNC(=O)C1CCN(C2=NS(=O)(=O)C(c3ccc(C)c(C)c3)=C2C)CC1 |  | inactive: 6.4% |
| COc1ccc(OC)c(NC(=O)Cn2cnc3sc(C)c(S(=O)(=O)N4CCN(c5ccccc5OC)CC4)c3c2=O)c1 |  | inactive: 0.406% |
| COc1ccc(NC(=O)c2ccc3c(=O)n4nc(Nc5cc(C)ccc5C)sc4nc3c2)cc1 | inactive |  |
| CCCN(C(=O)c1nn(-c2ccc(OC)c(Cl)c2)c(=O)c2c1c1ccccc1n2C)c1ccccc1F |  | inactive: 1.93% |
| CC(C)c1ccc2oc(-c3cc(NC(=O)c4cccs4)ccc3Cl)nc2c1 |  | inactive: 16.9% |
| O=c1c2oc3ccccc3c2n(Cc2cccc(F)c2)c(=O)n1Cc1ccco1 |  | inactive: 1.04% |
| COc1cccc(NC(=O)c2sc3nc(C)c(C(=O)Nc4ccc(C)cc4C)c(-c4sccc4C)c3c2N)c1 |  | inactive: -7.06% |
| CS(=O)(=O)CCNCc1ccc(-c2ccc3ncnc(Nc4ccc(OCc5cccc(F)c5)c(Cl)c4)c3c2)o1 |  | inactive: -25.3% |
| COc1ccc(S(=O)(=O)c2c(Nc3ccc(F)cc3)sc(C(=O)c3ccc(C)cc3C)c2N)cc1 |  | inactive: 1.02% |
| Cc1ccccc1N1CCN(S(=O)(=O)c2nnc(NC(=O)c3ccccc3)s2)CC1 |  | inactive: 2.07% |

| SMILES | outcome | activity change, negative = inhibition |
| --- | --- | --- |
| c1ccc(Cc2nnc(SCc3nc(-c4cccs4)no3)n2-c2ccccc2)cc1 | inactive |  |
| COc1ccc(C(=O)Nc2cc(C(C)C)c(O)c(S(=O)(=O)c3ccc(OC)cc3)c2C)cc1 | inactive |  |
| CCOc1ccccc1CNC(=O)c1cc2c(=O)n(Cc3ccccc3)ccc2nc1C |  | inactive: 145% |
| CC(=O)N1CCCc2cc(S(=O)(=O)N3CCCCC3)ccc21 |  | inactive: 2.91% |
| CCOc1ccc(NC(=O)CSc2nccn2-c2cccc(C)c2C)cc1 |  | inactive: 4.3% |
| CN(C(=O)c1cc2c(=O)oc3ccccc3c2s1)c1ccc(F)cc1 | inactive |  |
| COc1ccccc1NC(=O)CCn1cnc2ccccc2c1=O |  | inactive: 0.258% |
| Cc1ccc(Cl)cc1N1CCN(C(=O)C2CCCN(S(=O)(=O)c3ccc(Br)s3)C2)CC1 (configuration not stated) |  | inactive: 7.62% |
| Cc1ccc(OCC(=O)NCC(=O)OCc2cc(=O)n3nc(C)sc3n2)cc1 |  | inactive: -15.9% |
| CCOC(=O)C1CCN(S(=O)(=O)c2cc(-c3onc(C)c3C)ccc2OC)CC1 | inactive |  |
| CCCCn1c2ccc(F)cc2c2nnc(SCCN3CCCCC3)nc21 |  | inactive: -4.24% |
| CC(C)c1ccc(NC(=O)CSC2=Nc3ccccc3C3=NC(CC(=O)NCc4ccc(F)cc4)C(=O)N23)cc1 (configuration not stated) |  | inactive: 16.1% |
| CCc1ccccc1NC(=O)Cn1c(=O)c2cccn2c2ccc(F)cc21 | inactive |  |
| COc1ccc(CNC(=O)c2ccc3c(c2)N(Cc2cccc(Cl)c2)C(=O)c2ccccc2S3)c(OC)c1 |  | inactive: -5.92% |
| Cc1ccc(CNC(=O)c2nc(SCc3ccc(C)cc3)ncc2Cl)cc1 |  | inactive: -15.2% |
| COc1ccc(CCNC(=O)CSc2ncc3c(n2)-c2cc(Cl)ccc2N(Cc2ccccc2)S3(=O)=O)cc1OC |  | inactive: -0.82% |
| CC(C)c1ccc(OC(=O)c2cc(-c3ccc4c(c3)OCCO4)on2)cc1 |  | inactive: 0.615% |
| Cc1ccc(-n2c(=O)c3cccnc3n2CC(=O)Nc2cccc(C)c2C)cc1 |  | inactive: -1.79% |
| Cc1cccn2c(Nc3ccccc3)c(-c3ccc(N4CCOCC4)cc3)nc12 |  | inactive: -10.8% |
| COCCCNC(=O)CCn1c(=O)c2ccccc2n(CC(=O)Nc2c(C)cc(C)cc2C)c1=O |  | inactive: 44.1% |
| Cc1nn(-c2ccccc2)c(OC(=O)c2ccccc2F)c1S(=O)(=O)c1ccccc1 |  | inactive: -7.38% |
| COc1cccc2sc(N(Cc3cccnc3)C(=O)COc3ccccc3)nc12 |  | inactive: -4.26% |
| CCOc1ccc(C(=O)Nc2nnc(SCc3cc(=O)c4cc(C)ccc4[nH]3)s2)cc1 | inactive |  |
